Test results taken from FireProtDB (doi:10.1016/0022-2836(74)90188-0).

Conditions: Gallus gallus, 25 °C, Thermal, DSC, glycine 0.04 M, reversible: yes(>90%)

In the case of Lysozyme C wild type (letters omitted), the unfolding free energy (pH 1) is reported as 9.01 kcal/mol and the unfolding free energy (pH 7) is reported as 17.6 kcal/mol.
